Laboratory results reported in PMC9911399, “Two distinct binding modes provide the RNA-binding protein RbFox with extraordinary sequence specificity”.
Positions count from the first letter of the chain named. The list shows a part of the results.

T1: RBFOX1 RRM RbFoxmut (Fox-RRM*) (Homo sapiens, UniProt Q9NWB1 109-208, R118D;E147R;N151S;E152T)
T1 sequence: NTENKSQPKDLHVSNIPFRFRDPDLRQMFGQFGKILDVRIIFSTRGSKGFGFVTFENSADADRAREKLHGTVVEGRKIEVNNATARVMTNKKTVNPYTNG

B1: ACCUCCG (DNA:RNA)
RNA: GGGAGACCGGAAUUCAGAUUGUCCACCUCCGUUAAAUCCCGUCGUAGCCACCA
DNA 1: CAATCTGAATTCCGGTCTCCC
DNA 2: TGGTGGCTACGACGGGATT
B2: UUCGUGU (DNA:RNA)
RNA: B1 RNA with A25U, C26U, U28G, C29U, C30G, G31U
DNA 1: CAATCTGAATTCCGGTCTCCC
DNA 2: TGGTGGCTACGACGGGATT
B3: GCAUUAG (DNA:RNA)
RNA: B1 RNA with A25G, C27A, C29U, C30A
DNA 1: CAATCTGAATTCCGGTCTCCC
DNA 2: TGGTGGCTACGACGGGATT
B4: UUCCAGA (DNA:RNA)
RNA: B1 RNA with A25U, C26U, U28C, C29A, C30G, G31A
DNA 1: CAATCTGAATTCCGGTCTCCC
DNA 2: TGGTGGCTACGACGGGATT
B5: UACUGUC (DNA:RNA)
RNA: B1 RNA with A25U, C26A, C29G, C30U, G31C
DNA 1: CAATCTGAATTCCGGTCTCCC
DNA 2: TGGTGGCTACGACGGGATT
B6: CCGCUAG (DNA:RNA)
RNA: B1 RNA with A25C, C27G, U28C, C29U, C30A
DNA 1: CAATCTGAATTCCGGTCTCCC
DNA 2: TGGTGGCTACGACGGGATT
B7: UCGCGUC (DNA:RNA)
RNA: B1 RNA with A25U, C27G, U28C, C29G, C30U, G31C
DNA 1: CAATCTGAATTCCGGTCTCCC
DNA 2: TGGTGGCTACGACGGGATT
B8: GUCACCA (DNA:RNA)
RNA: B1 RNA with A25G, C26U, U28A, G31A
DNA 1: CAATCTGAATTCCGGTCTCCC
DNA 2: TGGTGGCTACGACGGGATT
B9: GGAAUAC (DNA:RNA)
RNA: GGGAGACCGGAAUUCAGAUUGUCCGGAAUACUUAAAUCCCGUCGUAGCCACCA
DNA 1: CAATCTGAATTCCGGTCTCCC
DNA 2: TGGTGGCTACGACGGGATT
B10: UCUUAAC (DNA:RNA)
RNA: B1 RNA with A25U, C27U, C29A, C30A, G31C
DNA 1: CAATCTGAATTCCGGTCTCCC
DNA 2: TGGTGGCTACGACGGGATT
B11: CCUAAGA (DNA:RNA)
RNA: B1 RNA with A25C, C27U, U28A, C29A, C30G, G31A
DNA 1: CAATCTGAATTCCGGTCTCCC
DNA 2: TGGTGGCTACGACGGGATT
B12: GAAUAAU (DNA:RNA)
RNA: B9 RNA with G26A, A28U, U29A, C31U
DNA 1: CAATCTGAATTCCGGTCTCCC
DNA 2: TGGTGGCTACGACGGGATT
B13: AGACUUA (DNA:RNA)
RNA: B9 RNA with G25A, A28C, A30U, C31A
DNA 1: CAATCTGAATTCCGGTCTCCC
DNA 2: TGGTGGCTACGACGGGATT
B14: GGAAUAU (DNA:RNA)
RNA: B9 RNA with C31U
DNA 1: CAATCTGAATTCCGGTCTCCC
DNA 2: TGGTGGCTACGACGGGATT
B15: AAUCGAA (DNA:RNA)
RNA: B1 RNA with C26A, C27U, U28C, C29G, C30A, G31A
DNA 1: CAATCTGAATTCCGGTCTCCC
DNA 2: TGGTGGCTACGACGGGATT
B16: AUGGACC (DNA:RNA)
RNA: B1 RNA with C26U, C27G, U28G, C29A, G31C
DNA 1: CAATCTGAATTCCGGTCTCCC
DNA 2: TGGTGGCTACGACGGGATT
B17: GAAACGC (DNA:RNA)
RNA: B9 RNA with G26A, U29C, A30G
DNA 1: CAATCTGAATTCCGGTCTCCC
DNA 2: TGGTGGCTACGACGGGATT
B18: AUUAAGU (DNA:RNA)
RNA: B1 RNA with C26U, C27U, U28A, C29A, C30G, G31U
DNA 1: CAATCTGAATTCCGGTCTCCC
DNA 2: TGGTGGCTACGACGGGATT
B19: UCCAGGA (DNA:RNA)
RNA: B1 RNA with A25U, U28A, C29G, C30G, G31A
DNA 1: CAATCTGAATTCCGGTCTCCC
DNA 2: TGGTGGCTACGACGGGATT
B20: CAGGGGC (DNA:RNA)
RNA: B9 RNA with G25C, G26A, A27G, A28G, U29G, A30G
DNA 1: CAATCTGAATTCCGGTCTCCC
DNA 2: TGGTGGCTACGACGGGATT

These binders were tested against T1, RBFOX1 RRM RbFoxmut (Fox-RRM*) (assay: EMSA; HiTS-Eq, 1 nM pool, 10 min; buffer printed only for the single-RNA assays: 10 mM Tris pH 7.5, 150 mM NaCl, 3.4 mM EDTA, 0.001% NP-40, 30 C). Conditions: tags: His6 N-terminal (pET28a); label: 5' 32P.
How it was run: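 Purified RbFox RRM, wild type or mutant, was incubated for 10 min in 50 µL with 1 nM of a 5′-radiolabelled RNA pool carrying 7 randomized nucleotides, whose flanks were annealed to DNA oligonucleotides, over a series of increasing protein concentrations. Unbound RNA was resolved on 8% native PAGE, cut out, reverse-transcribed, barcoded by PCR and sequenced on an Illumina HiSeq 2500. Relative association constants were derived from changes in read counts for each RNA species versus the control reaction and normalised to the cognate motif.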

| Binder | binding signal |
| --- | --- |
| B1 | 0.0628 KA relative to UGCAUGU |
| B2 | 0.13 KA relative to UGCAUGU |
| B3 | 0.153 KA relative to UGCAUGU |
| B4 | 0.0838 KA relative to UGCAUGU |
| B5 | 0.167 KA relative to UGCAUGU |
| B6 | 0.0977 KA relative to UGCAUGU |
| B7 | 0.145 KA relative to UGCAUGU |
| B8 | 0.0826 KA relative to UGCAUGU |
| B9 | 0.0833 KA relative to UGCAUGU |
| B10 | 0.102 KA relative to UGCAUGU |
| B11 | 0.104 KA relative to UGCAUGU |
| B12 | 0.137 KA relative to UGCAUGU |
| B13 | 0.0919 KA relative to UGCAUGU |
| B14 | 0.102 KA relative to UGCAUGU |
| B15 | 0.081 KA relative to UGCAUGU |
| B16 | 0.0807 KA relative to UGCAUGU |
| B17 | 0.0694 KA relative to UGCAUGU |
| B18 | 0.152 KA relative to UGCAUGU |
| B19 | 0.0868 KA relative to UGCAUGU |
| B20 | 0.0943 KA relative to UGCAUGU |
